Laboratory results reported in the supplement of paper PMC10369915.
The other results are listed elsewhere or left out. Rule as the data show it: active = 3.2 or more and inactive = the rest. Most of these values are background signal.

Key:
Assay in all cases: enrichment score (SH2-bound / input frequency) (ratio); bacterial display of known human phosphotyrosine sites (pTyr-Var adds point mutants) read by sequencing; higher = stronger binding; tyrosines were phosphorylated by kinases first
Details in all cases: peptide library: Human pTyr
[1] = biological target: SHP2 C-SH2 domain E139D
[2] = biological target: SHP2 C-SH2 domain wild-type
[3] = biological target: SHP2 N-SH2 domain L43F
[4] = biological target: SHP2 N-SH2 domain T42A
[5] = biological target: SHP2 N-SH2 domain T52S
[6] = biological target: SHP2 N-SH2 domain wild-type

Measured: enrichment score
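Also: displayed peptides selected on beads carrying the immobilized SH2 domain, with library peptides lacking any tyrosine serving as negative controls.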

SVTTGATYSYGPASW [AKAP8_HUMAN_51]
inactive: [1] 0.854 | [2] 0.865 | [3] 0.754 | [4] 0.792 | [5] 0.787 | [6] 0.789

SRGHNDVYISEHVMP [GRIN2A_HUMAN_1423]
inactive: [1] 0.684 | [2] 0.647 | [3] 0.816 | [4] 0.562 | [5] 0.682 | [6] 0.659

CGVKPHRYRPGTVAL [H3C_HUMAN_41]
inactive: [1] 1.33 | [2] 1 | [3] 0.981 | [4] 1.13 | [5] 1.1 | [6] 1.13

YTATESQYQQQPGGG [HCK_HUMAN_522]
inactive: [1] 0.962 | [2] 0.487 | [3] 0.554 | [4] 0.663 | [5] 0.576 | [6] 0.473

EESEDPDYAQANIQA [GTF2I_HUMAN_248_YA]
inactive: [1] 1.49 | [2] 1.13 | [3] 1.34 | [4] 1.3 | [5] 1.31 | [6] 1.42

GLSNNDQYKLASKHF [GRIN2A_HUMAN_1184_YA]
inactive: [1] 0.875 | [2] 0.768 | [3] 0.766 | [4] 0.838 | [5] 0.828 | [6] 0.987

SSPRDKIYTIDGEKE [GRIN2A_HUMAN_1118]
inactive: [1] 1.13 | [2] 0.697 | [3] 1.05 | [4] 0.905 | [5] 0.867 | [6] 0.847

AAFRLFKYGVQLYKN [GRB7_HUMAN_338]
inactive: [1] 1.57 | [2] 1.39 | [3] 1.44 | [4] 1.31 | [5] 1.41 | [6] 1.72

KRISGLIYEETRGVL [H4_HUMAN_52]
inactive: [1] 0.812 | [2] 0.731 | [3] 0.964 | [4] 0.794 | [5] 0.767 | [6] 0.892

ELGSQEGYVPKNFID [GRAP2_HUMAN_45]
inactive: [1] 0.512 | [2] 0.485 | [3] 0.591 | [4] 0.442 | [5] 0.441 | [6] 0.469

AAFRLFKYGVQLAKN [GRB7_HUMAN_338_YA]
inactive: [1] 1.56 | [2] 1.35 | [3] 1.28 | [4] 1.13 | [5] 1.95 | [6] 2.15

MPPYTVVYFPVRGRC [GSTP1_HUMAN_8]
inactive: [1] 0.745 | [2] 0.633 | [3] 1.62 | [4] 0.844 | [5] 0.732 | [6] 0.775

ESEDPDYYQYNIQAG [GTF2I_HUMAN_249]
inactive: [1] 1.36 | [2] 1.03 | [3] 1.36 | [4] 1.2 | [5] 0.947 | [6] 1.45

GGGGMPPYTVVYFPV [GSTP1_HUMAN_4]
inactive: [1] 1.98 | [6] 2.53
active: [2] 4.07 | [3] 15 | [4] 16.2 | [5] 9.3

DGFIPKNYIEMKPHP [GRB2_HUMAN_52]
inactive: [1] 0.811 | [2] 0.512 | [3] 1.26 | [4] 0.645 | [5] 0.566 | [6] 0.856

SSTGFQPYCLVVRKP [GSDMD_HUMAN_37]
inactive: [1] 0.99 | [2] 0.653 | [3] 1.17 | [4] 1.14 | [5] 1 | [6] 0.834

CSEVERTYLKTKSSS [GRIN2A_HUMAN_1105]
inactive: [1] 1.31 | [2] 0.908 | [3] 1.22 | [4] 1.07 | [5] 1.08 | [6] 1.2

AKEGANVYGIESVKI [GRIA2_HUMAN_876_YA]
inactive: [1] 0.586 | [2] 0.666 | [3] 0.659 | [4] 0.582 | [5] 0.723 | [6] 0.549

ATQASQEYGGGGGGG [H2AX_HUMAN_143]
inactive: [1] 0.907 | [2] 0.518 | [3] 0.823 | [4] 0.552 | [5] 0.736 | [6] 0.682

NNDQAKLYSKHFTLK [GRIN2A_HUMAN_1187_YA]
inactive: [1] 1.07 | [2] 0.859 | [3] 1.07 | [4] 0.933 | [5] 0.973 | [6] 0.816

NASLESLYSACSMQS [GRB10_HUMAN_67]
inactive: [1] 0.856 | [2] 0.647 | [3] 0.694 | [4] 0.784 | [5] 0.728 | [6] 0.72

TLDNGGFYISPRSTF [HCK_HUMAN_209]
inactive: [1] 0.748 | [2] 0.604 | [3] 0.707 | [4] 0.677 | [5] 0.712 | [6] 0.662

AFLASPEYVNLPING [GSTP1_HUMAN_199]
inactive: [1] 1.29 | [2] 1.2 | [3] 1.23 | [4] 1.3 | [5] 1.13 | [6] 1.68

FPLFTAVYQICYESR [GPD1L_HUMAN_328]
inactive: [1] 1.77 | [2] 2 | [3] 2.02 | [4] 1.88 | [5] 2.32 | [6] 2.28

VTAMDVVYALKRQGR [H4_HUMAN_89]
inactive: [1] 0.694 | [2] 0.558 | [3] 0.657 | [4] 0.629 | [5] 0.584 | [6] 0.694

YREGYNVYGTESVKI [GRIA3_HUMAN_887]
inactive: [1] 0.78 | [2] 0.552 | [3] 0.823 | [4] 0.566 | [5] 0.532 | [6] 0.658

IRSEENIYTIEENVA [HAVR2_HUMAN_265_YA]
inactive: [1] 1.35 | [2] 1.75 | [3] 1.43 | [4] 1.12 | [5] 1.64 | [6] 1.23

AREGANVYGTESVKI [GRIA3_HUMAN_887_YA]
inactive: [1] 0.736 | [2] 0.648 | [3] 0.642 | [4] 0.641 | [5] 0.662 | [6] 0.859

EDNVDEQYQEEAEEE [GOLI4_HUMAN_613]
inactive: [1] 1.28 | [2] 1.12 | [3] 1.15 | [4] 1.13 | [5] 1.42 | [6] 1.45

ESEDPDAYQANIQAG [GTF2I_HUMAN_249_YA]
inactive: [1] 1.05 | [2] 0.792 | [3] 0.821 | [4] 0.876 | [5] 1.01 | [6] 1.1

FPLFMAVYKVCAEGQ [GPDA_HUMAN_326_YA]
inactive: [1] 2.29 | [2] 2.24 | [3] 2.07 | [4] 1.87 | [5] 2.29 | [6] 2.88

TARKFLYYEMGYKSR [GPDM_HUMAN_601]
active: [1] 3.46 | [2] 3.53 | [3] 3.37 | [4] 3.5 | [6] 3.68
inactive: [5] 2.97

YKEGYNVYGIESVKI [GRIA2_HUMAN_876]
inactive: [1] 0.766 | [2] 0.585 | [3] 0.881 | [4] 0.514 | [5] 0.612 | [6] 1.38

FRKNFAKYELFKSSP [GRB7_HUMAN_188]
inactive: [1] 2.18 | [2] 1.66 | [3] 1.75 | [4] 1.4 | [5] 1.81 | [6] 2.1

VTIEDDDYSPPSKRP [GTF2I_HUMAN_318]
inactive: [1] 0.657 | [2] 0.594 | [3] 0.856 | [4] 0.809 | [5] 0.613 | [6] 0.501

CLPEHNPYRPSASAD [AKAP8_HUMAN_146_YA]
inactive: [1] 1.2 | [2] 1.05 | [3] 0.977 | [4] 1.1 | [5] 0.93 | [6] 1.29
